Sequences and labels used below:
B1: GUACUCA (DNA:RNA)
RNA: GGGAGACCGGAAUUCAGAUUGUCCGUACUCAUUAAAUCCCGUCGUAGCCACCA
DNA 1: CAATCTGAATTCCGGTCTCCC
DNA 2: TGGTGGCTACGACGGGATT
B2: CUCAAUG (DNA:RNA)
RNA: B1 RNA with G25C, A27C, C28A, U29A, C30U, A31G
DNA 1: CAATCTGAATTCCGGTCTCCC
DNA 2: TGGTGGCTACGACGGGATT
B3: AUGUGAA (DNA:RNA)
RNA: B1 RNA with G25A, A27G, C28U, U29G, C30A
DNA 1: CAATCTGAATTCCGGTCTCCC
DNA 2: TGGTGGCTACGACGGGATT
B4: CUGGAUG (DNA:RNA)
RNA: B1 RNA with G25C, A27G, C28G, U29A, C30U, A31G
DNA 1: CAATCTGAATTCCGGTCTCCC
DNA 2: TGGTGGCTACGACGGGATT
B5: GCGCUCA (DNA:RNA)
RNA: B1 RNA with U26C, A27G
DNA 1: CAATCTGAATTCCGGTCTCCC
DNA 2: TGGTGGCTACGACGGGATT
B6: GUUAUUU (DNA:RNA)
RNA: B1 RNA with A27U, C28A, C30U, A31U
DNA 1: CAATCTGAATTCCGGTCTCCC
DNA 2: TGGTGGCTACGACGGGATT
B7: AUGAGGG (DNA:RNA)
RNA: B1 RNA with G25A, A27G, C28A, U29G, C30G, A31G
DNA 1: CAATCTGAATTCCGGTCTCCC
DNA 2: TGGTGGCTACGACGGGATT
B8: GGAUUGG (DNA:RNA)
RNA: B1 RNA with U26G, C28U, C30G, A31G
DNA 1: CAATCTGAATTCCGGTCTCCC
DNA 2: TGGTGGCTACGACGGGATT
B9: UUGAGAC (DNA:RNA)
RNA: B1 RNA with G25U, A27G, C28A, U29G, C30A, A31C
DNA 1: CAATCTGAATTCCGGTCTCCC
DNA 2: TGGTGGCTACGACGGGATT

Numbering of substitutions follows the chain as printed; changes in the protein carry UniProt numbers. The list shows a part of the results.

The target in the test is T1, RBFOX1 RRM RbFoxmut (Fox-RRM*) (Homo sapiens, UniProt Q9NWB1 109-208, R118D;E147R;N151S;E152T).
T1 sequence: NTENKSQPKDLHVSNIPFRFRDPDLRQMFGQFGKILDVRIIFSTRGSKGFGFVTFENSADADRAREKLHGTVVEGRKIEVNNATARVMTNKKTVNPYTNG
The experiment in a line: EMSA; HiTS-Eq, 1 nM pool, 10 min; buffer printed only for the single-RNA assays: 10 mM Tris pH 7.5, 150 mM NaCl, 3.4 mM EDTA, 0.001% NP-40, 30 C. The conditions noted are these: tags: His6 N-terminal (pET28a); label: 5' 32P. In outline:
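Purified RbFox RRM (wild type or mutant) was equilibrated for 10 min in 50 µL with 1 nM of a 5′-radiolabelled pool of RNA with 7 randomized nucleotides, its flanks annealed to DNA oligonucleotides, across increasing protein concentrations. Free RNA was separated by 8% native PAGE, excised, reverse-transcribed, PCR-barcoded and sequenced on an Illumina HiSeq 2500. Relative association constants came from read-count changes of each variant against the control reaction, normalised to the cognate motif.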
Consider B1, for which the binding signal is 0.095 KA relative to UGCAUGU.

Turning to B2, the binding signal is 0.105 KA relative to UGCAUGU. With B3 the figure was 0.118 KA relative to UGCAUGU. In the case of B4, the binding signal is 0.646 KA relative to UGCAUGU.

With B5, the binding signal is 0.0581 KA relative to UGCAUGU. B6: the binding signal is 0.117 KA relative to UGCAUGU. As for B7, the figure is 0.0929 KA relative to UGCAUGU. On to B8, for which the binding signal is 0.219 KA relative to UGCAUGU.

As to B9, the binding signal is 0.0589 KA relative to UGCAUGU.

These data come from publication PMC9911399, “Two distinct binding modes provide the RNA-binding protein RbFox with extraordinary sequence specificity”.
